In patent US20130280256A1 (Eli Lilly, published 2013):

What was measured:
[1] = target: T1, human IL-17 (homodimer of two human IL-17A proteins) (human, UniProt Q16552 24-155); assay: SPR, kinetic binding experiment
T1 construct: also called recombinant IL-17
T1 sequence (looked up): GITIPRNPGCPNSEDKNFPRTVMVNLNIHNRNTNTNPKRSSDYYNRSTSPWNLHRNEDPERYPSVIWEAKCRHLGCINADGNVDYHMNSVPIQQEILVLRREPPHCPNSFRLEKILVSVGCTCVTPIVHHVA
Procedure: (§1) Antibody samples are prepared at 10 mcg/mL by dilution into running buffer. Human IL-17 or human BAFF are prepared at final concentrations of 20.0, 10.0, 5.0, 2.5, 1.25 and 0 (blank) nM by dilution into running buffer. Each analysis cycle consists of (1) capturing antibody samples on separate flow cells (Fc2, Fc3, and Fc4), (2) injection of 250 mcL (300-sec) of human IL-17 or human BAFF over all Fc at 50 mcL/min, (3) return to buffer flow for 20 mM to monitor dissociation phase, (4) regeneration of chip surfaces with a 5 mcL (30-sec) injection of glycine, pH1.5, (5) equilibration of chip surfaces with a 10 mcL (60-sec) injection of HBS-EP+. Data are processed using standard double-referencing and fit to a 1:1 binding model using Biacore 2000 Evaluation software, version 4.1, to determine the association rate (kₒₙ, M⁻¹s⁻¹ units), dissociation rate (koff, s⁻¹ units), and Rₘₐₓ (RU units). The equilibrium dissociation constant (KD) is calculated as from the relationship KD=koff/kₒₙ, and is in molar units.
(§2) All measurements are performed at 25° C.

[2] = target: T2, human BAFF (B-cell Activating Factor of the TNF Family) (human, UniProt Q9Y275 part only); assay: SPR, kinetic binding experiment
T2 construct: Called soluble BAFF in the T1165 assay; also called soluble BAFF
Procedure: as §1, §2

[3] = target: T1, human IL-17 (homodimer of two human …); assay: SPR (Biacore 2000), antibody captured on protein A, antigen as analyte, 25 C, 1:1 model, n=3
Procedure: as §1, with “A CM5 chip containing immobilized protein A (generated using standard NHS-EDC amine coupling) on all four flow cells (Fc) is used to employ a capture methodology. Antibody” for “Antibody”

[4] = target: T2, human BAFF (B-cell Activating Factor of …); assay: as above
Procedure: as §1, with “A CM5 chip containing immobilized protein A (generated using standard NHS-EDC amine coupling) on all four flow cells (Fc) is used to employ a capture methodology. Antibody” for “Antibody”

T2 sequence (Q9Y275 134-285 limits assumed): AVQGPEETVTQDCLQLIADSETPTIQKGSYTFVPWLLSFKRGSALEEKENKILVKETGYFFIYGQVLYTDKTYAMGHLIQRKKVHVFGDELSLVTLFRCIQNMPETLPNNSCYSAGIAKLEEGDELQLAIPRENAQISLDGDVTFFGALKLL

B1: bispecific antibody comprising two first polypeptides of SEQ ID NO:1 and two second polypeptides of SEQ ID NO:2 (anti-BAFF IgG4 MAb with C-terminal anti-IL-17 … (bispecific antibody)
heavy: QVQLQQWGAGLLKPSETLSLTCAVYGGSFSGYYWSWIRQPPGKGLEWIGEINHSGSTNYNPSLKSRVTISVDTSKNQFSLKLSSVTAADTAVYYCARGYYDILTGYYYYFDYWGQGTLVTVSSASTKGPSVFPLAPCSRSTSESTAALGCLVKDYFPEPVTVSWNSGALTSGVHTFPAVLQSSGLYSLSSVVTVPSSSLGTKTYTCNVDHKPSNTKVDKRV[gap - human IgG4 Fc with S228P L445P (EU numbers)]GGGSGGGGTGGGGSQVQLVQSGAEVKKPGSSVKVSCKASGYKFTDYHIHWVRQAPGQCLEWMGVINPTYGTTDYNQRFKGRVTITADESTSTAYMELSSLRSEDTAVYYCARYDYFTGTGVYWGQGTLVTVSSGGGGSGGGGSGGGGSGGGGSDIVMTQTPLSLSVTPGQPASISCRSSRSLVHSRGETYLHWYLQKPGQSPQLLIYKVSNRFIGVPDRFSGSGSGTDFTLKISRVEAEDVGVYYCSQSTHLPFTFGCGTKLEIK
light: EIVLTQSPATLSLSPGERATLSCRASQSVSRYLAWYQQKPGQAPRLLIYDASNRATGIPARFSGSGSGTDSTLTISSLEPEDFAVYYCQQRSNWPRTFGQGTKVEIKRTVAAPSVFIFPPSDEQLKSGTASVVCLLNNFYPREAKVQWKVDNALQSGNSQESVTEQDSKDSTYSLSNTLTLSKADYEKHKVYACEVTHQGLSSPVTKSFNRGEC
modifications: glycosylated at asparagine residue 300 of SEQ ID NO:1
notes: MAb-scFv format, tetravalent; About 90:10 correctly folded antibody to diabody; also called anti-BAFF-anti-IL-17 bispecific antibody
stoichiometry [1]: ~1.3 | stoichiometry [2]: ~1 | Kd [3]: 0.014 nM | koff [3]: 3.7e-05 s⁻¹ | kon [3]: 2.5e+06 M⁻¹ s⁻¹ | Kd [4]: 0.06 nM | koff [4]: 0.00012 s⁻¹ | kon [4]: 2.3e+06 M⁻¹ s⁻¹
